Read counts are not given, so values of variants with three or more changes are uncertain.
B1: LINE1-mini (parent)
chain: GGCAGAGCUCAACACAGCGUGGCAAAGUGGCUGUGGCUAGACUGCC

Variants of: B1
Experiment: self-cleavage, relative activity (ratio to wild type); higher = more cleavage; in vitro, sequencing; the parent is a self-cleaving ribozyme

Variant | self-cleavage
GGAAGACCUCAACACAGCGUGGCAAAGUGGCUGUGGCUAGACAGCC | 0.06
GGAAGAUCUCAACACAGCGUGGCACAGUGGCAGUGGCUAGACUACC | 0.11
GGAAGAUCUCAACACAGCGUGGCAAAGUGGCUGUGGCUAGACUGUU | 0.13
GGAAGAUCUCAACACAGCGUGGCAAAAUGGCUGUGGCUGGCCUCCC | 0.21
GGAAGAUCUCAACACAGCGUGGCAAAGUGGCUUGGGCUAGACUGCU | 0.29
GGAAGAGCUCAACACAACGUGGCUAAGUGGCUGUGGCUCGACUGCC | 0.07
GGAAGAGCUCAACACAACGUGGCAAAGUGGAUGUGGCUAGACUGCC | 0.2
GGAAGAGCUCAACACAACGUGGCAAAGUGGCUGUGGCUAGAAUGCC | 0.11
GGAAGAGCUCAACACAACGUGGCAAAGUGGCUGUGGCUAGAUUGCC | 0.06
GGAAGAGCUCAACACAACCUGGCAAAGUGGCUGUGGCUAGACUGCC | 0.09
GGAAGAGCUCAACACAACGUGGCAAAGUGGCUCUGGCUAGAAUGCU | 0.05
GGAAGAGCUCAACACACCGUGGCAAAGUGGCUGUGGCUAGGCUGCC | 0.14
GGAAGAGCUCAACACACCGUGGCAAAGUGGCUGUGGCUAGGCUCCC | 0.06
GGAAGAGCUCAACACACCGUGGCAAAGUGGCUGUGGCUAGACUGCA | 0.34
GGAAGAGCUCAACACACCCUGGCAAAGUGGCUGUGGCUAGACUGCC | 0.21
GGAAGAGCUCAACACACCGUGGCAAAGCGGCUGUGGCUAGACUGCC | 0.9
GGAAGAGCUCAACACAUCGUGGCAGAUUGGCUGUGGCUAGACUGCC | 0.09
GGAAGAGCUCAACACAUCGUGGGAAAGAGGCUGUGGCUAGACAGCC | 0.02
GGAAGAGCUCAACACAUCGUGCCAAAGUGGCCGUGGAUAGUCUGCC | 0.11

Variant | self-cleavage
GGAAGAGCUCAACACAUCGUGUCAAAGUGGCUGUGGCUAGACUGCC | 0.07
GGAAGAGCUCAACACAUCGUGGCAAAGGGGCUGAGGCUAGACUGCC | 0.25
GGAAGAGCUCAACACAGCAUGGCAACGUGACUGUGGCUAGACUGCC | 0.63
GGAAGAGCUCAACACAGCAUGGCAAAGUGGCUGUGGUAAGACUGCC | 0.32
GGAAGAGCUCAACACAGCCUGGCCAAGUGGCUGUGGCUACACUGCC | 0.08
GGAAGAGCUCAACACAGCCUGGCAAAGUGGCUGUGGCUUGACUGCC | 0.04
GGAAGAGCUCAACACAGCCUGGCAAAGUGGCUGCGGCUGGACUGCC | 0.24
GGAAGAGCUCAACACAGCGUAGCAAAGAGGCUGUGGCUAGAAUGCC | 0.06
GGAAGAGCUCAACACAGCGUAGCAAAGUGGCUGUGGCAAGACUGCC | 1.35
GGAAGAGCUCAACACAGCGUCGCAAAGUGGCUGUUGGUAGACUGCC | 0.09
GGAAGAGCUCAACACAGCGUUGCAUAGUGGUUGUGGCUAGACUGCC | 0.05
GGAAGAGCUCAACACAGCGUUGCAAAGUGGCUGUGGCUGGAAUUCC | 0.12
GGAAGAGCUCAACACAGCGUUGUAAAGUGUCUGUGGCUAGACUGCC | 0.43
GGAAGAGCUCAACACAGCGUUGCAAAGUGGCUGUGGCUAGAUUGCC | 0.21
GGAAGAGCUCAACACAGCGUUUCAAAGUGGCAAUGGCUAGACUGCC | 0.08
GGAAGAGCUCAACACAGCGUGACAAUGUGGCUGUGCCCAGACUGCC | 0.38
GGAAGAGCUCAACACAGCGUGACAAAGUGGCUCUGGCUAGACUGCC | 0.15
GGAAGAGCUCAACACAGCGUGGCAAAUUGGGUGUGGCUGGACUGCC | 0.06
GGAAGAGCUCAACACAGCGUGGCAAAGUAGCUGAGGCUAGCCUGCC | 0.15

Variant | self-cleavage
GGAAGAGCUCAACACAGCGUGGCAAAGUCGGUGUGGCUAGACUGCA | 0.28
GGAAGAGCUCAACACAGCGUGGCAAAGUUGCUGUGGAUAGACUUCC | 0.09
GGAAGAGCUCAACACAGCGUGGCAAAGUGACUGUGGCUAUACUGCC | 0.14
GGAAGAGCUCAACACAGCGUGGCAAAGUGCCUGUCGCUAAACUGCC | 0.27
GGAAGAGCUCAACACAGCGUGGCAAAGUGCCUGUGGCUAGACGGAC | 0.03
GGAAGAGCUCAACACAGCGUGGCAAAGUGUCUGUGUCUAGACUGCC | 0.08
GGAAGAGCUCAACACAGCGUGGCAAAGUGUCUGCAGCUAGACUGCC | 0.07
GGAAGAGCUCAACACAGCGUGGCAAAGUGGCUCUAGCUAGACUGCC | 0.09
GGAAGAGCUCAACACAGCGUGGCAAAGUGGCUUUGGCUAGAAUGCC | 0.52
GGAAGAGCUCAACACAGCGUGGCAAAGUGGCUUUCGCUAGACUGCC | 0.14
GGAAGAGCUCAACACAGCGUGGCAAAGUGGCUUAGGCUAGACUGCC | 0.21
GGAAGAGCUCAACACAGCGUGGCAAAGUGGCUUUGGCUAGACCGCC | 0.33
GGAAGAGCUCAACACAGCGUGGCAAAGUGGCUGUAGCUCGACCUCC | 0.04
GGAAGAGCUCAACACAGCGUGGCAAAGUGGCUGUGCCUAAACUGCC | 0.32
GGAAGAGCUCAACACAGCGUGGCAAAGUGGCUGUGUCUAGACUGGC | 0.81
GGAAGAGCUCAACACAGCGUGGCAAAGUGGCUGUGGCUACACUUCC | 0.11
GGAAGAGCUCAACACAGCGUGGCAAAGUGGCUGUGGCUACACGGCC | 0.45
GGAAGAGCUCAACACAGCGUGGCAAAGUGGCUGUGGCUAUAGUGGC | 0.06

Reference: the RNAGym collection of RNA variant scans (doi:10.7554/elife.90254)
